Values joined by “and” are separate entries in the source; they are usually repeats but may differ in a detail not shown here. Equal values may be shown once. This list was built around the results that the source calls inconclusive (neither active nor inactive); the mix of calls is not that of the screen. Potencies of inconclusive entries are doubtful fits and often do not repeat. Active and inactive are the calls of the source. Calls come from the whole dose curve; as a rule, active = well fitted curve in the direction sought with a large enough effect in the repeat runs; inconclusive = weak or mixed curves; inactive = no such curve, though single readings can be large; an effect the other way counts as inactive or inconclusive.
Assay: Caspase-3/7 induction in CHO-K1 cells by small molecules, qHTS cell viability counter screen (AID 1346979); note: nearly all actives have a fitted effect of over 35% in size
Conditions: CellTiter-Fluor fluorescence, 17 h; series mostly up to 92.4 µM; activity change, negative = cytotoxicity: at the top concentration
How it was run: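 In the same wells as the caspase read, viability of compound-treated wild-type CHO-K1 cells was assessed using CellTiter-Fluor, added after 16hr at 37C and measured by fluorescence following 1hr further incubation.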
% is set by controls: 0 for no effect and ±100 for the full control effect; potency is the fitted concentration of half-maximal effect; tags give direction and shape of the fitted curve.

| SMILES | Potency | activity change, negative = cytotoxicity |
| --- | --- | --- |
| CC(C)(C)N(NC(=O)c1ccc(Cl)cc1)C(=O)c1ccccc1 | active: 12.1 µM | – |
| COP(=S)(OC)Oc1cc(Cl)c(Br)cc1Cl | inconclusive: 6.86 µM [rising, partial curve] | – |
| N#CC(C#N)=C(C#N)C#N | inconclusive: 32 µM [cytotoxic, full curve] | – |
| O=C(OC1CCCCC1)c1ccccc1C(=O)OC1CCCCC1 | inconclusive: 72.3 µM [cytotoxic] | – |
| O=C(Nc1ccccc1)Nc1cnns1 | active: 54.4 µM | – |
| Cc1ccc(C)c2ccccc12 | – | inactive: 12.4% |
| Cc1ccccc1OP(=O)(Oc1ccccc1C)Oc1ccccc1C | inconclusive: 68.9 µM [cytotoxic, single point] | – |
| O=Cc1ccco1 | inconclusive: 66.3 µM [cytotoxic, single point] | – |
| CCCCCCn1cc[n+](C)c1 | inactive | – |
| Oc1ccc(Cl)c(Cl)c1 | active: 67.5 µM | – |
| CN(C)c1ccc(N(C)C)cc1 | inconclusive: 77.2 µM [cytotoxic, single point] | – |
| COP(=S)(OC)SCN1C(=O)c2ccccc2C1=O | inconclusive: 61.1 µM [cytotoxic, single point] | – |
| Cc1cc(Cl)ccc1N=CN(C)C | inconclusive: 38.6 µM [rising, partial curve, poor fit] | – |
| CCN(CC)C(=O)C(C)Oc1cccc2ccccc12 (stereo not drawn) | inconclusive: 69.1 µM [cytotoxic, single point] and inconclusive: 68.6 µM [cytotoxic, single point] | – |
| CC(Cc1ccc2c(c1)OCO2)NO (stereo not drawn) | inconclusive: 83.4 µM | – |
| COc1ccc2c(c1OC)C(=O)O[C@@H]2[C@H]1c2cc3c(cc2CCN1C)OCO3 | active: 21.5 µM | – |
| CC(C)CCCCCOC(=O)c1ccccc1C(=O)OCCCCCC(C)C | active: 60.4 µM | – |
| C=CCc1ccc2c(c1)OCO2 | inactive | – |
| Oc1ccc2[nH]cc(CCCCN3CC=C(c4ccccc4)CC3)c2c1 | inconclusive: 18.8 µM [cytotoxic, partial curve, poor fit] | – |
| CCCCCOC(=O)c1ccccc1C(=O)OCCCCC | inactive | – |
| COP(=S)(OC)Oc1ccc(Sc2ccc(OP(=S)(OC)OC)cc2)cc1 | inconclusive: 68.6 µM [cytotoxic, single point] and inactive | – |
| CC(Cl)(Cl)C(=O)O | inconclusive: 68.7 µM [cytotoxic, single point] | – |
| COC(=O)c1cncn1C(C)c1ccccc1 (stereo not drawn) | – | inactive: 0.66% [at 42.5 µM] |
| NNc1ccccc1 | inconclusive: 24.3 µM [cytotoxic, partial curve] | – |
| CC(Cl)C(C)Cl (stereo not drawn) | – | inactive: -1.58% |
| CCC(OC(C)=O)C(CC(C)NC)(c1ccccc1)c1ccccc1 (stereo not drawn) | active: 69.2 µM | – |
| O=C1C[C@@H]2OCC=C3CN4CC[C@]56c7ccccc7N1[C@H]5[C@H]2[C@H]3C[C@H]46 | inconclusive: 33.5 µM [cytotoxic] | – |
| CC1=C2C[C@H]3[C@@H](CC=C4C[C@@H](O)CC[C@@]43C)[C@@H]2CC[C@]12O[C@@H]1C[C@H](C)CN[C@H]1[C@H]2C | inconclusive: 23.7 µM [cytotoxic, partial curve] | – |

Assay: Caspase-3/7 induction in CHO-K1 cells by small molecules, qHTS assay (AID 1346980); note: nearly all actives have a fitted effect of over 15% in size
Conditions: CHO-K1 caspase-3/7 induction, Caspase-Glo luminescence, 17 h; series mostly up to 92.4 µM; caspase-3/7 activation: at the top concentration
How it was run: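 Luminescent Caspase-Glo 3/7 read (30min, room temperature) quantified apoptosis induction. Cells were wild-type CHO-K1, treated with compound for 17hr at 37 C and 5% CO2.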

| SMILES | Potency | caspase-3/7 activation |
| --- | --- | --- |
| O=Cc1ccco1 | inconclusive: 66.3 µM [activator, single point] | – |
| ClCc1ccccc1CCl | inconclusive: 68.6 µM [activator, single point] | – |
| Oc1ccc([C@H]2CNCc3c2ccc(O)c3O)cc1O | inconclusive: 33.5 µM [activator, single point] | – |
| CC(C)N(C(=O)COc1nnc(C(F)(F)F)s1)c1ccc(F)cc1 | – | inactive: 0.315% |
| CC(Cl)(Cl)C(=O)O | inconclusive: 77.1 µM [activator, single point] | – |
| CCC(OC(C)=O)C(CC(C)NC)(c1ccccc1)c1ccccc1 (stereo not drawn) | inconclusive: 69.2 µM [activator, partial curve, poor fit] | – |

Assay: Caspase-3/7 induction in HepG2 cells by small molecules, qHTS cell viability counter screen (AID 1346981); note: nearly all actives have a fitted effect of over 30% in size
Conditions: CellTiter-Fluor fluorescence, 17 h; series mostly up to 92.4 µM; activity change, negative = cytotoxicity: at the top concentration
How it was run: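 Counter screen for cytotoxicity: HepG2 exposed 16 hr to compounds, then CellTiter-Fluor viability signal (fluorescence, 1 hr reagent incubation).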

| SMILES | Potency | activity change, negative = cytotoxicity |
| --- | --- | --- |
| N#CC(C#N)=C(C#N)C#N | inconclusive: 0.254 µM [cytotoxic, full curve, poor fit] | – |
| O=C(OC1CCCCC1)c1ccccc1C(=O)OC1CCCCC1 | inconclusive: 81.1 µM [cytotoxic, single point] | – |
| O=[N+]([O-])c1cc(C(F)(F)F)cc([N+](=O)[O-])c1Cl | active: 61.4 µM | – |
| CCN(CC)C(=O)[C@@H]1C=C2c3cccc4[nH]cc(c34)C[C@H]2N(C)C1 | inconclusive: 101 µM [cytotoxic, partial curve, poor fit] | – |
| Cc1ccc(C)c2ccccc12 | – | inactive: 6.24% |
| CC(C)(C)c1cc([N+](=O)[O-])cc(C(C)(C)C)c1O | inconclusive: 5.45 µM [cytotoxic, full curve] | – |
| CCn1cc[n+](C)c1 | inactive | – |
| O=[N+]([O-])[O-].[Tl+] | inconclusive: 61.6 µM [cytotoxic, partial curve, poor fit] | – |
| Oc1ccc([C@H]2CNCc3c2ccc(O)c3O)cc1O | inconclusive: 33.5 µM [cytotoxic, single point] | – |
| O=[N+]([O-])c1cccc2cccc([N+](=O)[O-])c12 | – | inactive: 0.955% |
| CCN(CC)C(=O)C(C)Oc1cccc2ccccc12 (stereo not drawn) | inconclusive: 61.6 µM [cytotoxic, single point] | – |
| COc1ccc2c(c1OC)C(=O)O[C@@H]2[C@H]1c2cc3c(cc2CCN1C)OCO3 | active: 17.1 µM | – |
| CC(C)CCCCCOC(=O)c1ccccc1C(=O)OCCCCCC(C)C | inconclusive: 67.8 µM [cytotoxic, single point] | – |
| Oc1ccc2[nH]cc(CCCCN3CC=C(c4ccccc4)CC3)c2c1 | inconclusive: 33.5 µM [cytotoxic, single point] | – |
| Cn1c(N)nc2c3cccnc3ccc21 | inconclusive: 36.7 µM [cytotoxic, partial curve, poor fit] | – |
| CCC(OC(C)=O)C(CC(C)NC)(c1ccccc1)c1ccccc1 (stereo not drawn) | active: 69.2 µM | – |
| O=C1C[C@@H]2OCC=C3CN4CC[C@]56c7ccccc7N1[C@H]5[C@H]2[C@H]3C[C@H]46 | inconclusive: 33.5 µM [cytotoxic, single point] | – |
| CCC(=O)C(CC(C)N(C)C)(c1ccccc1)c1ccccc1 (stereo not drawn) | inconclusive: 123 µM [cytotoxic, single point] and inconclusive: 68.1 µM [cytotoxic, partial curve, poor fit] and inconclusive: 46.6 µM [cytotoxic, partial curve, poor fit] | – |
| CC1=C2C[C@H]3[C@@H](CC=C4C[C@@H](O)CC[C@@]43C)[C@@H]2CC[C@]12O[C@@H]1C[C@H](C)CN[C@H]1[C@H]2C | inconclusive: 29.8 µM [cytotoxic, partial curve] | – |
